# Measured values as given in paper PMC6919601, “Identification of Plasmodium dipeptidyl aminopeptidase allosteric inhibitors by high throughput screening” (PLoS ONE, 2019).
# About 230 (0.21%) of roughly 110,000 compounds showed an effect of 50% or more. The list shows a part of the results.
# Biological target: DPAP1 (Plasmodium falciparum, UniProt Q8IIJ9)
# Test: primary screen, percent inhibition; read by cleavage of a fluorogenic dipeptide substrate; higher = more effect of the substance
# Design: species or system P. falciparum D10 trophozoite lysates; single well
# 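Further: 30 min substrate incubation versus DMSO and 10 µM JCP410 controls.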
# DPAP1, sequence (Q8IIJ9 whole entry, looked up): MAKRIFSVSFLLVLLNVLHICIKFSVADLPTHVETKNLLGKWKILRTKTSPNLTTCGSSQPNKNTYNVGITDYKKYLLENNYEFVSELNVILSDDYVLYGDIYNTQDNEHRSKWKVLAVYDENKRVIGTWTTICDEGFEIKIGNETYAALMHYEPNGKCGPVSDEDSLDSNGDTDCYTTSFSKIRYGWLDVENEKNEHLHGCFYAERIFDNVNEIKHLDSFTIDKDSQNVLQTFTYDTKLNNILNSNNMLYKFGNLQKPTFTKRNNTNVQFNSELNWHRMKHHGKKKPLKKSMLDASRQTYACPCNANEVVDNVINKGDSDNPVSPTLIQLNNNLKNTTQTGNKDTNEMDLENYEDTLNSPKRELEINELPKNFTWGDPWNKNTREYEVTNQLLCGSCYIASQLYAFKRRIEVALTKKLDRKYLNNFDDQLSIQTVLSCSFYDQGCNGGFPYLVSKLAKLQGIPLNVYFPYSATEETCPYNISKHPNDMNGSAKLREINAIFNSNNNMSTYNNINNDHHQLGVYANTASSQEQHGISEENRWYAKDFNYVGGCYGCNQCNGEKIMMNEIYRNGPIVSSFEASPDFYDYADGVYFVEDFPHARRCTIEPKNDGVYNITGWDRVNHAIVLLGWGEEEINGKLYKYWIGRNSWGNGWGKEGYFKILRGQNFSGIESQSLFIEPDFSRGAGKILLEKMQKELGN
row,SMILES,% Inhibition @ 10 uM [%]
1,O=C(C1CCCO1)N1CCC(c2c[nH]c3ccccc23)(c2c[nH]c3ccccc23)CC1 (centres unmarked),-2.37
2,COCCCNC(=O)c1[nH]c2cc(C)ccc2c1Sc1ccc(Cl)cc1,-8.23
3,CC(NC(=O)c1ccc(CS(=O)(=O)c2cccc(C(F)(F)F)c2)o1)c1ccc2c(c1)OCCO2 (centres unmarked),-6.89
4,COc1cccc(CNC(C)CCc2ccc(O)cc2)c1OC (centres unmarked),0.217
5,Cc1ccc2c(c1)/C(=C\CC(=O)O)c1ccccc1CS2,-8.26
6,CCc1ccccc1NC(=O)C(C)Sc1ccccc1 (centres unmarked),-0.941
7,NC(=O)c1c(NC(=O)C2CCCC2)sc2c1CCC2,-3.05
8,O=C(CC(=O)c1ccccc1)Nc1cc([N+](=O)[O-])ccc1Cl,3.34
9,COc1ccc(OC)c(C2=NOC(C(=O)NC3CCCC3)C2)c1 (centres unmarked),-3.94
10,CC(NC(=O)CCCN1C(=O)CSc2ncccc21)C12CC3CC(CC(C3)C1)C2 (centres unmarked),-0.637
11,CCc1c(C#N)c(N)nc2sc(C(=O)OCc3ccccc3)c(N)c12,15.3
12,CCOC(=O)c1c(NC(=O)c2cc(C)on2)sc2c1CCCC2,0.0221
13,CCOC(=O)c1c(NC(=O)CSc2nnnn2-c2ccccc2)sc2c1CCCC2,-0.0267
14,NC(=O)c1nc(-c2ccccc2)c(-c2ccccc2)nc1O,4.94
15,CC1CCC(NC(=O)CCc2cn(C)c3ccccc23)CC1 (centres unmarked),1.13
16,CCOC(=O)Cn1nnc2ccccc21,-0.268
17,COc1cc(-c2cc(N)n(S(=O)(=O)c3ccc(F)c(C)c3)n2)cc(OC)c1OC,1.15
18,Cc1ccc(NC(=O)c2ccccc2O)nc1,1.13
19,CCOc1ccc(CCNC(=O)CCCc2nnc3n(C)c(=O)c4sccc4n23)cc1,-6.26
20,COC(=O)c1[nH]nc2c1C(=O)N(C1CCCCC1)C2=O,-3.5
21,Cc1c(CNCc2ccco2)c(C(=O)O)c(C)n1Cc1ccccc1F,-1.92
22,CCCN(CCC)S(=O)(=O)c1ccc(C(=O)N2CCN(C)CC2)cc1,-1.69
23,N#Cc1ccccc1NC(=O)C1CC1c1ccccc1 (centres unmarked),0.716
24,COc1cccc(NS(=O)(=O)c2ccc(OC)c(Cl)c2Cl)c1,-0.0619
25,CCOC(=O)Nc1cccnc1[N+](=O)[O-],-1.97

row,SMILES,% Inhibition @ 10 uM [%]
1,FC(F)(F)c1cccc(N2CCN(Cc3ccsc3)CC2)c1,-0.294
2,Cc1ccc(-c2nn(-c3ccccc3)cc2C2SCC(=O)N2Cc2ccccc2)o1 (centres unmarked),5.59
3,C/C=C(\C)CN(C)CCc1ccccn1,-1.78
4,Cc1cccc(C)c1OCC(O)CN1CCN(c2ccccc2F)CC1 (centres unmarked),5.29
5,CC1=CC(C)(C)N(S(=O)(=O)c2ccc(C)cc2)c2cc(C)ccc21,3.03
6,CCOC(=O)c1sc(N2C(=O)c3oc4ccccc4c(=O)c3C2c2ccc(O)c(OC)c2)nc1C (centres unmarked),2.16
7,CC1=C(C(=O)OCCc2ccccc2)C(c2ccccc2OCc2ccccc2)NC(=O)N1 (centres unmarked),4.1
8,COc1ccccc1C1C2=C(O)CC(C)(C)CC2=NC(C)=C1C(=O)Nc1ccccc1C (centres unmarked),3.05
9,Clc1cccc(OCCCn2ccnc2)c1,-8.75
10,COc1ccc(NC(=O)c2ccc(S(=O)(=O)N3CCCCCC3)cc2)cc1,-12.5
11,Brc1cc(-c2ccccc2)c(CN2CCOCC2)s1,-3.23
12,CC(Cc1ccccc1)NC(=O)c1ccc(Cn2cc(Cl)cn2)o1 (centres unmarked),-2.83
13,CCOC(=O)C1=CN(Cc2ccc(OC)cc2)C=C(C(=O)OCC)C1c1ccccc1Cl,-1.48
14,O=C(Cc1csc2ccccc12)NCCc1ccccc1,-3.53
15,CCOc1ccc(C(=O)C2=C(O)C(=O)N(Cc3cccnc3)C2c2ccc(C)cc2)cc1 (centres unmarked),8.37
16,CN1CCN(C(=O)C2CCCN(S(=O)(=O)N3CCCCC3)C2)CC1 (centres unmarked),-4.68
17,COc1ccc(CCNC(=O)Cn2ncc3c2-c2ccccc2OC3)c(OC)c1,-0.692
18,CCOC(=O)C1CCN(C2CCCC(C)C2)CC1 (centres unmarked),-4.75
19,NC(=O)Cn1c2ccccc2c2nc3n(c(=O)c21)CCS3,1.32
20,C=CCSc1ncc(Cl)c(C(=O)Nc2sc3c(c2C(=O)OC)CCCC3)n1,2.41
21,CC(=O)N/C(=C\c1ccccc1)C(=O)NCc1ccc(Cl)c(Cl)c1,-7.57
22,Nc1no[n+]([O-])c1C(=O)CSc1nnnn1-c1ccccc1,-0.92
23,Cn1cc(CSCC(=O)NCc2ccccc2)cc1C(=O)C(F)(F)F,7.76
24,CN(C)c1ccc(/C=C2\C(=O)NC(=S)N(c3cccc4ccccc34)C2=O)cc1,4.61
25,COc1ccccc1/C=C1\SC(=O)N(CN2CCOCC2)C1=O,-6.79
